This is one part of the list. These are noisy estimates, calculated here from bound and input reads.
Biological target: T1, Pho4 (S. cerevisiae) (UniProt P07270)
T1 sequence: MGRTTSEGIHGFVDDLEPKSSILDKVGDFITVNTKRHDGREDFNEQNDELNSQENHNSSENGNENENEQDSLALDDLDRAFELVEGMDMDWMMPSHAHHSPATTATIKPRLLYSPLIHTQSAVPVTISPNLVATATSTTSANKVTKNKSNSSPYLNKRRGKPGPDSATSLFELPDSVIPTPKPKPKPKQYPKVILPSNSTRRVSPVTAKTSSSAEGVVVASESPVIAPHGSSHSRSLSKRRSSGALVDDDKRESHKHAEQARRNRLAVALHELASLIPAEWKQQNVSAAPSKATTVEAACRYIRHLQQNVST
Test: relative binding free energy (BET-seq); higher = weaker binding
Conditions: reference: library average

Sequence	relative binding free energy [kcal/mol]
TTGAGCACGTGTATAA	0.09
ATAAGCACGTGGGGGT	-0.18
TTGAACACGTGTTTAT	0.04
ATTGTCACGTGGCTGT	0.08
GTTTACACGTGTTAGA	0.24
ATATGCACGTGTGGGA	-0.01
GTTTTCACGTGTGCGC	0.46
TTGTACACGTGGTTTG	0.06
AGGGCCACGTGATGAG	0.06
ATATTCACGTGTAGCT	0.16
TAGTTCACGTGAGTAT	0.53
TTTTCCACGTGTTGAA	0.03
CGGACCACGTGTAGGT	0.14
TACGTCACGTGTAGCG	0.16
CGTCACACGTGGTGGG	0.03
ATAATCACGTGGGTGT	-0.11
GTGCACACGTGAGAGG	0.36
TAAATCACGTGCTGGG	0
GTGGGCACGTGGAACT	0.06
TTTATCACGTGTCGAG	0.11
ACTGTCACGTGTTTTG	-0.01
GTATTCACGTGCGTTG	0.18
TGGGGCACGTGTAGGC	-0.05
ATGTTCACGTGGTGCT	0.14
GACCTCACGTGGTGGG	0.39
AAAAGCACGTGGGCGT	-0.12

Sequence	relative binding free energy [kcal/mol]
GTTCTCACGTGTAGGG	0.29
CGTATCACGTGTGGAG	0.2
TAGGTCACGTGTAATC	0.24
GTTAACACGTGCGGGG	0.01
TTGGACACGTGCTAGG	-0.05
AAGGACACGTGGGGAG	0
CGGGGCACGTGGGTAT	-0.16
AGGGGCACGTGGATGT	0
GGATACACGTGAGCGT	0.35
TACGTCACGTGTCTGG	0.13
TTTTGCACGTGTCTCT	-0.04
TAGGTCACGTGATGCA	0.14
AGTTGCACGTGCTGGA	0.01
GGTCACACGTGGGTCT	-0.06
GAATACACGTGGTTTG	-0.02
GGTTACACGTGTAAAT	0.4
TGTTGCACGTGGGATC	-0.09
CGTTACACGTGGCGAG	0.15
GGGCGCACGTGGTGTC	-0.16
TGGATCACGTGGTGGG	0.17
GTGGGCACGTGGAAGC	0.05
TTATTCACGTGGCTCG	0.21
GAAAACACGTGTTGGG	0.19
GTAGGCACGTGTTACG	-0.09
AGGGCCACGTGGAGGT	-0.1
GTTTACACGTGGACGT	0.1

Sequence	relative binding free energy [kcal/mol]
CGCGTCACGTGGGGCG	-0.12
ATACGCACGTGTGGGA	-0.06
ATTTGCACGTGCGGGC	0.03
GTGGTCACGTGCGGTC	0.2
AGAATCACGTGTCAGG	0.22
ATTAGCACGTGAGTAG	0.17
AATAACACGTGTTTGT	-0.05
AATAACACGTGTGTTT	-0.15
TGGTTCACGTGGACTT	0.24
AATAGCACGTGAGTGG	0.03
GTAGGCACGTGATTTA	-0.03
ATGGACACGTGTGTCT	-0.03
TAGTGCACGTGCATTG	-0.13
GGGGGCACGTGGAGTC	-0.07
AAGATCACGTGGAGCG	0.29
AGAGGCACGTGGAGAG	0.03
CTTAACACGTGTGGCG	0.15
AGGGGCACGTGCGATG	-0.17
ACGAGCACGTGTAGTG	-0.02
TGATGCACGTGCGAGT	-0.02
CTGAACACGTGAGGTG	0.24
CTGGGCACGTGTCTTG	-0.06
TCTGGCACGTGTGATA	-0.05
GTAATCACGTGTCTGG	0.15
TGTGCCACGTGGCTTG	-0.23
CATGGCACGTGGCAGT	-0.21

Sequence	relative binding free energy [kcal/mol]
GCTAACACGTGTGGGG	0.1
AGTTACACGTGGAAGA	0.25
GATAGCACGTGTTAGT	-0.12
TAGGGCACGTGGCAAT	-0.16
CTGTGCACGTGTGGGA	0.01
TATAGCACGTGCGTGT	-0.18
GCGCGCACGTGGCGGG	-0.26
TAAGTCACGTGTTGTT	0.17
AGTAGCACGTGCAGGG	-0.1
TTAGGCACGTGCAGGA	-0.1
CTGGGCACGTGCAGGG	-0.05
TTTCTCACGTGTCGAG	0.27
TCTAGCACGTGCTAGT	0
TGTGGCACGTGAAAAT	0.15
TAAGGCACGTGATGGG	0.08
TCCGTCACGTGGGATG	0.09
GGTGGCACGTGGAAAC	0.24
TTATGCACGTGTTCTA	0
AGAGCCACGTGGGGGA	-0.22
TTATTCACGTGATAAG	0.3
TATGTCACGTGTGGTG	0.14
AGGCGCACGTGATGGG	0.07
TTGTTCACGTGGCGCA	0.21
TAAGTCACGTGCTGGT	0.1
AGCAGCACGTGTTAGT	-0.11
TTGTACACGTGGGATC	0

Sequence	relative binding free energy [kcal/mol]
TTTAACACGTGAGGGT	0.24
TGGGTCACGTGTTTTC	0.09
GATAGCACGTGTGCGG	0.11
TTTATCACGTGTATAG	0.07
CGTGGCACGTGTTTGT	-0.14
TTTTGCACGTGTTCGA	-0.02
TGCATCACGTGGCGGG	0.04
GGCGGCACGTGGAGCG	-0.11
GTGGTCACGTGCGGGC	0.04
GTAGACACGTGAGATG	0.34
CGTGGCACGTGGAGGC	-0.12
AGGTCCACGTGGTGGC	0.06
TTTATCACGTGCGTTC	0.03
AGTTGCACGTGTTCAG	0.1
GTTCGCACGTGCGAGG	0.11
AGATACACGTGTTAGG	-0.08
AGGTACACGTGGTTTT	-0.04
TGTTCCACGTGAATGG	0.19
TTTATCACGTGACGGT	0.27
CTAGGCACGTGAGTGC	0.25
TTTTGCACGTGGAATA	0.11
TATAACACGTGGTATA	-0.05
ATGGGCACGTGTAGTC	-0.13
ACTGGCACGTGAGTAG	0.09
TGAGGCACGTGTGGTG	-0.04
CTTGGCACGTGCGTAT	-0.09

Sequence	relative binding free energy [kcal/mol]
TGGGTCACGTGCATGT	-0.13
GTAGCCACGTGTAGGA	0.05
GGGCTCACGTGGTTGT	0.32
TTGAACACGTGTTTCG	-0.01
AGTGACACGTGGAGAT	0.04
GGAGTCACGTGGCGCG	0.07
ATGCTCACGTGTATGA	0.25
CTAAGCACGTGTGTGA	-0.04
TTGTTCACGTGCTAGT	0.26
GTCATCACGTGTCGTT	0.12
AGTCTCACGTGGCTGG	0.19
CGGCACACGTGGGGAG	-0.05
TGTTTCACGTGTACTT	0.3
TGGCACACGTGGCGTT	0.07
CAGGGCACGTGAGTTG	0.04
AATTGCACGTGGGGAT	-0.14
AATAGCACGTGTTGTT	-0.13
GAAGGCACGTGTTAGT	-0.09
CTCGGCACGTGGGAAG	-0.08
ATGTGCACGTGATGTG	0.04
TAATGCACGTGGGCTG	-0.21
TGAGGCACGTGTAGGC	-0.06
TCTAGCACGTGTTGTA	-0.02
TAATACACGTGGCGGG	0.06
ATGTGCACGTGGAGGG	-0.08
GATCTCACGTGGGTAG	0.09

Sequence	relative binding free energy [kcal/mol]
CTTCGCACGTGTGGTG	0
TATGACACGTGTGTGA	0.02
GTGTACACGTGTATAT	0.09
GGGTTCACGTGCTTGG	0.2
TCAGGCACGTGTAGTG	-0.09
CTAGACACGTGGGATG	-0.12
GTGGACACGTGTTAGT	0.03
CTTATCACGTGAGGGG	0.41
GTTTTCACGTGATTTA	0.34
ACTTGCACGTGTTTTG	-0.17
GGCGTCACGTGGGATA	0.01
TTTAGCACGTGCATGT	-0.14
CATTGCACGTGTCTGG	-0.04
GTTGTCACGTGATAAG	0.19
GGAGTCACGTGTGCTG	0.06
TTTCACACGTGTTATG	0.04
TTACGCACGTGTGTGC	-0.01
GCGGTCACGTGAGGGA	0.26
TGCGTCACGTGGTGGT	0.03
AGTTTCACGTGGCGGT	0.23
TGGTGCACGTGCGATT	0.07
TCTGTCACGTGTGAAG	0.12
AGTTACACGTGATTTG	0.23
TCACGCACGTGTGGTG	-0.08
TAGGACACGTGGGTAC	-0.05
TCAATCACGTGTGTTA	0.12

Sequence	relative binding free energy [kcal/mol]
TGATTCACGTGTATCA	0.2
TGTATCACGTGAAGGT	0.24
TCTTGCACGTGATAGG	0.12
GGGAACACGTGCTGGT	-0.05
GAGGACACGTGGAGTT	0.15
ATCTACACGTGTTGGT	0.1
CGATACACGTGTTGGG	-0.03
GGGGCCACGTGTTGAT	-0.04
AGTTACACGTGATAGT	0.11
TAATTCACGTGGTTGA	0.19
TGCAGCACGTGTGGTC	-0.09
ATCGGCACGTGGAAGT	0.02
ATGGGCACGTGGTGTG	-0.19
CGAGGCACGTGCTGGG	-0.18
TTAGCCACGTGTGGTA	-0.14
TCGGTCACGTGTTCTG	0.12
GTCCACACGTGTTGGT	0.21
TAGTTCACGTGAGAGC	0.56
TTGTTCACGTGTTGGC	0.37
GTTGGCACGTGTTAGC	-0.15
TGTGCCACGTGGTCGT	-0.08
ATTAGCACGTGGTTAC	0.04
TAAAACACGTGTGGGG	0.18
TGGGTCACGTGGGCCT	0.07
CGTGTCACGTGGGCAT	0.02
GTTGTCACGTGTGCGA	0.16

Sequence	relative binding free energy [kcal/mol]
AGGATCACGTGATGGT	0.31
TTCATCACGTGTGTTG	0.19
TATTCCACGTGGTTGT	0.02
AGGGGCACGTGGCGTG	-0.14
TTCACCACGTGGGGGG	-0.16
AGAGTCACGTGATTGT	0.13
TTAATCACGTGTTATA	0.13
GTTATCACGTGCTATG	0.04
TAGGGCACGTGTGAGC	-0.09
GTGCACACGTGGGTGT	-0.02
CTATGCACGTGTAAGT	0.04
AATCGCACGTGTTAGT	0.05
TCGTGCACGTGTATAT	-0.12
ATAAGCACGTGTTATT	-0.11
TTTAGCACGTGCAAGT	-0.09
CTGTTCACGTGGTTAT	0.14
AAAGGCACGTGTTCTG	-0.16
TAAGGCACGTGGTGCT	-0.16
GGGTTCACGTGAGTGT	0.49
GGGAGCACGTGGTCGG	-0.24
GTTATCACGTGTTACT	0.13
CGATACACGTGGGTTT	-0.14
